This is an account of results in article PMC12136788.

To fix the notation:
B1: chr2:42509997:42509998:+_ENSG00000143924_ENST00000318522|hu_mus|hu_hu_hu_mus_True|38_38 (ssRNA)
RNA: GGGAGUUCUACAGUCCGACGAUCUCGCUGAGUCCUCUCCUCAUAAUUAAACAGGACUACCACUGAGGCGAUAAAAUAAACUAUCUCCCCUGUGGGAAGAAGGUAAACAUUCGCUCUACAGUCCUUUCCUCGAUAACCGUAUACCAACAGAGGAUUGAGCAUCA
B2: chr1:178670160:178670161:-_ENSMUSG00000057335_ENSMUST00000057037|mus_hu|FALSE|FALSE (ssRNA)
RNA: GGGAGUUCUACAGUCCGACGAUCUUGAGGUCUUGGAUCACCAGAUCGACCGUUGUUUCCUUCUGGUGUUUUGGAAUGAACUAAUGGAGGAAUCUUUCGGAAGUUGAGGCUUUCAUCAAAAACACGAUCAACCAACUCUUCUCUCAACAGAGGAUUGAGCAUCA
B3: chr7:135612270:135612271:-_ENSG00000105887_ENST00000393085|hu_mus|hu_hu_hu_mus_False|78_78 (ssRNA)
RNA: GGGAGUUCUACAGUCCGACGAUCGUUUUUUUCUGAGAUGUUAAAUAGUACUUCAGUAACAAAACUUACUUAACCUUUUAUUAAUGCGUGUUGUACCAAAAGCAGACAUUUUAGCUUCAUUUAUUCAAAAAUAUUAACAUUAAGCAACAGAGGAUUGAGCAUCA
B4: 119122356_119122476_1676_3pUTR_ENSG00000182197_ENST00000378204|human|control|control (ssRNA)
RNA: GGGAGUUCUACAGUCCGACGAUCGAAUCCUUGUGCUUUUGCCAGUCUUUGCCAUGCUUGCAGGUGGUGAGGAGCACAACGUCCUCCCCGUUAUGGACGUGAUAUAAGGCAUUCCUGGUGUCUGAUCCUAUCCCUGUCAGGUACCAACAGAGGAUUGAGCAUCA
B5: chr17:3197573:3197574:+_ENSMUSG00000046201_ENSMUST00000076734|mus_mus|FALSE|FALSE (ssRNA)
RNA: GGGAGUUCUACAGUCCGACGAUCCCUCACAAGAUUCUCCCUCAUGUCCACAGGAGGUCUUCCAAAAUGAUCCCUAGCAUCUAAUGGAGGCCUUCCAGGGCCUUCUCUGGGAUCUAGACGUCGCCCAACCACAUCCCUAACAUCCAACAGAGGAUUGAGCAUCA
B6: chr12:53618122:53618123:+_ENSMUSG00000035133_ENSMUST00000110725|mus_mus|motif|central (ssRNA)
RNA: GGGAGUUCUACAGUCCGACGAUCUCUUGUUCCCUCUAAGUUGAUAUAUUCUUCAUAAUCAGGAUGAUUUUUUAAUUUAUUACGGACAGUUUUCCAAGUUGCAUGAUAAUCUCUCACAGUCUGUACAAGUUUUUCAAACUUGUCCAACAGAGGAUUGAGCAUCA
B7: chr19:8913615:8913616:-_ENSMUSG00000071658_ENSMUST00000096259|mus_hu|mus_mus_mus_hu_False|1_58 (ssRNA)
RNA: GGGAGUUCUACAGUCCGACGAUCAGGGUACCAAAACCUUCUGCCUGAAAUGGGUGCCCCACCCAGUAGGGAGUUGCAGCUAAAAAUAUCUGAUGCAGAAGCAGUGACUAUACGAAAGGAGGCCCCUGGGGAGGGCCCGAGAUCCAACAGAGGAUUGAGCAUCA
B8: chr12:39756943:39756944:-_ENSG00000139116_ENST00000544797|hu_mus|hu_hu_hu_mus_False|38_88 (ssRNA)
RNA: GGGAGUUCUACAGUCCGACGAUCGGUUUGGCUGUUACCCCCAAGGGAAUCCUGUAGGAGUCUUGUCAGCUUAGAGUCUCUGUAAGGGACAUGGGUGGCCCUCUUGCUCUUGUCCCCCAAGGCGCUGAUUACAUUCCCAAGAGCCAACAGAGGAUUGAGCAUCA
B9: 180426612_180426732_171_5pUTR_ENSMUSG00000038914_ENSMUST00000103055|mouse|control|control (ssRNA)
RNA: GGGAGUUCUACAGUCCGACGAUCACAUAAAAUUAUAGACCUGGGGCCAGGUCAAGCAGACGGCCAAGCCUCACCCCACUGUUGUCAGUCACAGUUCAUCAAUGAGAAGAUUCCGGAGCUUCGAACAACCAAAGGGACAGUGGGCAACAGAGGAUUGAGCAUCA
B10: chr1:213174215:213174216:-_ENSG00000174606_ENST00000366962|hu_hu|FALSE|FALSE (ssRNA)
RNA: GGGAGUUCUACAGUCCGACGAUCUGUCUUUUCUACUUUUGGUACCUGCUGUACCUCAUACACACAGUUCUGUGAGAUACCUAGGUUUGGGGGCCAAAUUGGAAUAGAUAAAAUUCUUUGUCCCCGUGAAGACUGUUCCUGGCCCAACAGAGGAUUGAGCAUCA
B11: chr12:82822756:82822757:-_ENSMUSG00000042724_ENSMUST00000035987|mus_hu|motif|central (ssRNA)
RNA: GGGAGUUCUACAGUCCGACGAUCGGCUGAGGAGAGGGAGCAGCAGACAGAUUUGGCUGAGUGACUCUGCAGGGUCACUCGGAAGGCAAGGAAGACUGUGGAGGGUGGGGGACAUGCAUGCACCCCUUCCUCCCCUACACAGCCCAACAGAGGAUUGAGCAUCA
B12: chr4:48472875:48472876:-_ENSMUSG00000028345_ENSMUST00000030030|mus_hu|FALSE|FALSE (ssRNA)
RNA: GGGAGUUCUACAGUCCGACGAUCACUAUUUAGCCUAGAGCCAUCUUCAAGGGUCUCUGUUACAAAUUUCCUUAUCAUUUCUAUCCAACUGCAAUCCUUCUGCAAAGUUGACGCAUUUGCCAGGGAGACCAUGAUAUCAGACAGCAACAGAGGAUUGAGCAUCA
B13: chr1:220275481:220275482:+_ENSG00000067704_ENST00000302637|hu_mus|FALSE|FALSE (ssRNA)
RNA: GGGAGUUCUACAGUCCGACGAUCAAACGCCGAUUUCUGCUUUUCAAUGGCUGCCUGAGCAAAUGAUCUGGCUUUCUCCCUGAUCUCCAUGGCUGAAAGACUCUGGGCAUCUACACCGAGCUCUGAUAACACUUUUGUUUCAAUCAACAGAGGAUUGAGCAUCA
B14: chr11:87793471:87793472:-_ENSMUSG00000020483_ENSMUST00000020775|mus_mus|mus_mus_mus_hu_False|28_88 (ssRNA)
RNA: GGGAGUUCUACAGUCCGACGAUCUGGACUUGAAAAUAAAAGAAUAAGCUAGAUUUCCCACCCCCCCACAUUGUCAACCCUACACGAGAGUUUUGAAGGCGACUCAUGAAUCAGCAGAGCUCAAACGGCAAUGACCACCCCACCCAACAGAGGAUUGAGCAUCA
B15: chr2:181324804:181324805:-_ENSMUSG00000000823_ENSMUST00000128553|mus_mus|FALSE|FALSE (ssRNA)
RNA: GGGAGUUCUACAGUCCGACGAUCGCCCCUUACCCCUUGGCACCGCUGAUAGUGGUACUUGAGCCCAUAGAUGCUGGGGAACUCUAGCCAGCACCCUGAGUUUGGACACUUCACCCUUGAGUGUGCCUUGAAUUCAUCUUUCCACAACAGAGGAUUGAGCAUCA
B16: chr7:141438946:141438947:+_ENSG00000106028_ENST00000265304|hu_mus|hu_hu_hu_mus_True|58_98 (ssRNA)
RNA: GGGAGUUCUACAGUCCGACGAUCGACGAAAUACCUGACAGGUCUUCCUUCGAAACAUGGCUUCUGUUUUUCUUACAGUCUAAUCUUUAGGCUUUUCCUAAAGGAAAGAAAGAAAAGAGAAAAAUGAUAAAUCAAGAAACUACACAACAGAGGAUUGAGCAUCA
B17: chr8:101932826:101932827:-_ENSG00000164924_ENST00000353245|hu_mus|FALSE|FALSE (ssRNA)
RNA: GGGAGUUCUACAGUCCGACGAUCAAUAUAGAAAUUCAAAUAGAAGUAACAUAAACCUGUCAUAAAUCGUAAACAAAAAAACUAUCUGUGGGACAGCAUGGAUGACAAAUGGUCUACUGUGUAAAUUUUAGAAUGAGGCAGACACAACAGAGGAUUGAGCAUCA
B18: chr4:76572280:76572281:-_ENSG00000138757_ENST00000395719|hu_hu|motif|central (ssRNA)
RNA: GGGAGUUCUACAGUCCGACGAUCCUUUAGCUCAUUUUCAUCAAUAUCAUGUGGCAAGUUACCAACAAAAAGUUGAUGACGGUCUGGAUAGCGAAUUAUUCUACGGUUGUCAGAGUCAUUCUGUUCCAUAUCUCCUCUGCCUGGCAACAGAGGAUUGAGCAUCA
B19: chr1:167409666:167409667:+_ENSMUSG00000026568_ENSMUST00000027853|mus_mus|FALSE|FALSE (ssRNA)
RNA: GGGAGUUCUACAGUCCGACGAUCUUCUUGGUUAUAUCUCCAAAUCCGAAACAGCUGAGAGGCUCCUGCUGACCCCACAAAGAAAUUAACAGCGAACAAACUCCAAUUUUUUGGUAUAAUUACAAGUGAAUAUCUUGACCAAAUCAACAGAGGAUUGAGCAUCA
B20: chr2:176857102:176857103:-_ENSG00000144320_ENST00000272748|hu_mus|motif|central (ssRNA)
RNA: GGGAGUUCUACAGUCCGACGAUCAGAAUAGAUAAUUAAUCUUCCAACCCAUAAUUUUUGCAAUCUCUGAUUUUUUUCUCGGAAUUCUUCCAAUGCUUGAAUUUCCUUAUCUAUAUUUUCUAGAACUUCUACUGUUGAAGGUUUCAACAGAGGAUUGAGCAUCA
B21: chr4:155193719:155193720:+_ENSMUSG00000029068_ENSMUST00000139066|mus_mus|motif|central (ssRNA)
RNA: GGGAGUUCUACAGUCCGACGAUCAGACAAAAGCAACAAAACACUAAAAGUGGCAUCAAACUAAGUACACUUAAAAAUGCGGUAAUACUUUAGAUGAUAUGUAAGUACAAAACUUCACAUUUUUAGAAAAGUUAAAGGUCAUUUCAACAGAGGAUUGAGCAUCA
B22: chr3:133545784:133545785:-_ENSG00000154917_ENST00000285208|hu_hu|FALSE|FALSE (ssRNA)
RNA: GGGAGUUCUACAGUCCGACGAUCGCACAUGUAUCUCCGUGAGGAUGUGUUUGUGGAAGGUGUAUACACAAGUCUAUCUCUAUAUAUAAUUAUGUACACACAUAUAAAAACUAAACACAUGACAUCUGAAACACGUUCAAACAUCAACAGAGGAUUGAGCAUCA

The list shows a part of the results.

In the assay the target is T1, UNK ZnF1-3 (human, UniProt Q9C0B0 31-174).
T1 sequence: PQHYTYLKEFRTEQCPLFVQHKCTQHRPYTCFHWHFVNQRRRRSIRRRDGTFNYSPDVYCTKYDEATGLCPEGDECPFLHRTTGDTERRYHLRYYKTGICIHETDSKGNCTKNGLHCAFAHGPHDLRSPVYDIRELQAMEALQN
The experiment in a line: nsRBNS (natural sequence RNA bind-n-seq); RBNS binding buffer (assumed for nsRBNS): 25 mM Tris pH 7.5, 150 mM KCl, 3 mM MgCl2, 0.01% Triton X-100, 500 ug/ml BSA, 20 U/ml SUPERase-In, 4 C; UNK is unkempt and MSI1 is Musashi-1; names of the RNAs are library labels; protein concentration not given here; high values mean tight binding.
In the case of B1, the binding signal turned out to be 1.07 enrichment R. On to B2, for which the binding signal was 0.782 enrichment R. Molecule B3 came in with a binding signal of 0.888 enrichment R. Turning to B4, the binding signal turned out to be 0.416 enrichment R.

As for B5, the binding signal came out at 0.979 enrichment R. With B6, the binding signal was found to be 1.12 enrichment R.

As for B7, the binding signal turned out to be 1.16 enrichment R. As for B8, the figure is 0.821 enrichment R; as for B9, 1.13 enrichment R.

B10 showed a binding signal of 0.653 enrichment R. As to B11, the binding signal was determined as 0.835 enrichment R.

The molecule B12 showed a binding signal of 0.819 enrichment R. For the molecule B13, the binding signal was 0.546 enrichment R. Regarding B14, the binding signal was found to be 1.53 enrichment R.

The molecule B15 registered a binding signal of 0.672 enrichment R.

As to B16, the binding signal was determined as 0.542 enrichment R. On to B17, for which the binding signal is 2.05 enrichment R. Molecule B18 yielded a binding signal of 0.805 enrichment R. With B19, the binding signal amounted to 1.53 enrichment R.

For the molecule B20, the binding signal was determined as 0.385 enrichment R. The molecule B21 came in with a binding signal of 1.09 enrichment R. B22 yielded a binding signal of 0.913 enrichment R.
